# The campaign covered roughly 340,000 compounds. About 12,000 (3.5%) were called active. Inconclusive means that the source gave no clear call. Such entries were picked first, then a sample of the others. Calls come from the whole dose curve; as a rule, active = well fitted inhibition curve with a large enough effect; inconclusive = small, poorly fitted or top-dose-only effect, or another doubt; inactive = no such curve, though single readings can be large or run the other way. Potencies of inconclusive entries are left out as doubtful fits.
# Test: qHTS Assay for Inhibitors of Hepatitis C Virus (HCV)
# Conditions: Huh7.5.1 HCVcc-Cre (HCVcc is cell-culture hepatitis C virus) infection, luciferase reporter, 44 h; activity change, negative = inhibition: at 41.8 µM (top of the series) unless noted
# Method in brief: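 Compounds are dispensed onto cells plated 4 h earlier at 1,000 per well, with HCVcc-Cre virus (about 0.5 moi) added next. Following 44 h of culture, luminescent signal is measured for 15 sec after 15 min with substrate at room temperature.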
# % is set by controls: 0 for no effect and ±100 for the full control effect; potency is the fitted concentration of half-maximal effect; tags give direction and shape of the fitted curve.
SMILES,Potency,"activity change, negative = inhibition"
CCC(=O)N(C)CCc1cc2c(c(OC)c1/C=N/Nc1ccc(C(=O)O)cc1)OCO2,"inconclusive [inhibitor, single point]",
COc1ccccc1C=NN=C(N)C(N)=NN=Cc1ccccc1OC,,inactive: -12.9%
CC(=O)c1cccc(S(=O)(=O)N2CCC(c3nc4ccccc4[nH]3)CC2)c1,"inconclusive [inhibitor, single point]",
CC(C)CC(NC(=O)CCC(=O)OCC(=O)[C@@]1(O)CCC2[C@@H]3CCC4=CC(=O)C=C[C@]4(C)C3[C@@H](O)C[C@@]21C)C(=O)O (stereo partly specified),,inactive: 24%
CCN(c1ccc(NC(=O)CCc2nc3sc4c(c3c(=O)[nH]2)CCCC4)cc1)C(C)C,"inconclusive [inhibitor, partial curve]",
COc1ccccc1-n1cnc2cc(NCc3ccccc3O)ccc21,"inconclusive [inhibitor, single point]",
CN(C)CC1CCCCC1OC(=O)/C=C/c1ccc(Cl)cc1Cl (stereo unspecified),"inconclusive [inhibitor, single point]",
CCc1cccc2c(C#N)cn(CC(=O)NCc3ccco3)c12,"inconclusive [inhibitor, single point]",
COc1cc(/C=C2\C(=O)NC(=O)N(c3ccccc3)C2=O)cc(OC)c1OC,,inactive: 12.2%
Oc1ccc(Nc2nc(-c3ccccc3)nc3ccccc23)cc1,active: 10 µM,
O=C(CCCc1ccccc1)Nc1ccccc1C(F)(F)F,,inactive: 12.5%
O=c1c([N+](=O)[O-])c(N2CCOCC2)c2ccccc2n1Cc1ccccc1,"inconclusive [inhibitor, partial curve]",
COc1ccc(/C=c2\s/c(=C/C(=O)c3ccc(C)cc3)[nH]c2=O)c(OC)c1,"inconclusive [inhibitor, single point]",
CC(=O)Cc1nsc(NC(=O)c2ccc(F)cc2)n1,,inactive: 7.74%
CC(=O)Cn1ncc(N(C)Cc2ccccc2)c(Cl)c1=O,,inactive: 6.37%
COc1ccc(N2CCc3c(C)nc4c(OC)cc(OC)cc4c32)c(OC)c1,active: 11.2 µM,
Cn1nc(Oc2ncc(C(F)(F)F)cc2Cl)cc1C(F)(F)F,,inactive: 10.8%
Cc1ccccc1NC(=O)CSc1nc(N)c2c3c(sc2n1)CSC(C)(C)C3,"inconclusive [inhibitor, partial curve]",
Cc1ccc([N+](=O)[O-])c(OCCN2CCc3ccccc3C2)c1,"inconclusive [inhibitor, partial curve]",
COc1cccc(C(=O)Nc2cc(Cl)c(O)c(Cl)c2)c1,,inactive: 5.91%
Cc1ccc(NC(=O)C(=O)NCCc2c[nH]c3ccccc23)cc1C,,inactive: 10.4%
COc1ccc(CCNC(=O)COc2ccc(S(=O)(=O)NC3CCCCC3)cc2Cl)cc1,"inconclusive [inhibitor, single point]",
CC(NC(=O)c1cccs1)C(c1cccs1)N1CCN(Cc2ccccc2)CC1 (stereo unspecified),"inconclusive [inhibitor, single point]",
CC[C@]12c3[nH]c4ccc(OC)cc4c3CCN1C(=O)C(CC(=O)NCc1cccc(C(F)(F)F)c1)C[C@@H]2C(=O)N1CCN(C(=O)c2ccco2)CC1 (stereo partly specified),"inconclusive [inhibitor, partial curve]",

SMILES,Potency,"activity change, negative = inhibition"
CN(C)C(=O)CCC(=O)N(C)CC1CCCN(CCc2ccc(F)cc2)C1 (stereo unspecified),,inactive: 11.2%
O=C(CCOc1ccccc1)Nc1ccnn1C1CCN(CCc2ccccc2)CC1,"inconclusive [inhibitor, partial curve]",
Cc1ccc(OCC(=O)Nc2ccccc2N2CCCC2)c(C)c1,"inconclusive [inhibitor, partial curve, poor fit]",
O=C(NCC1CCN(Cc2ccccc2F)CC1)Nc1cc(F)ccc1F,"inconclusive [inhibitor, single point]",
CCCSc1ccc([C@@H]2[C@H]3C(=O)N(C)C(=O)[C@H]3[C@]3(C(=O)OC)CCCN23)cc1OC,,inactive: 5.6%
O=C(CSc1nnc(-c2ccccc2)n1-c1ccc(Cl)cc1)NNC(=S)Nc1ccccc1,"inconclusive [inhibitor, partial curve]",
COc1ccc(NC(=O)CC2C(=O)N(c3cccc(OC)c3)C(=O)N2CCC(C)C)cc1 (stereo unspecified),,inactive: -22%
O=C(c1ccco1)N1CCN(c2ncnc3scc(-c4cccs4)c23)CC1,"inconclusive [inhibitor, partial curve]",
Cc1ccc(NC(=O)Nc2ccc(F)c(Cl)c2)cc1,"inconclusive [inhibitor, single point]",
Cc1ccc(C)c(NC(=S)N/N=C2/CCCCc3ccccc32)c1,"inconclusive [inhibitor, partial curve, poor fit]",
COc1ccc(/C=C/C(=O)NCCn2c(C)cc3ccccc32)cc1OC,"inconclusive [inhibitor, partial curve]",
CC(=O)N1CC(C)Sc2ccc(S(=O)(=O)NC3CCCCC3C)cc21 (stereo unspecified),"inconclusive [inhibitor, single point]",
CC(=O)c1cccc(OCC(=O)NC2CCCCCC2)c1,,inactive: 10.8%
COc1cccc(C(c2sc3nc(C)nn3c2O)N2CCc3ccccc3C2)c1 (stereo unspecified),"inconclusive [inhibitor, single point]",
COc1cccc(NC(=O)c2ccc(NC(=O)C(C)C)cc2)c1,"inconclusive [inhibitor, single point]",
Cc1occc1C(=O)N/N=C/C=C/c1ccccc1,,inactive: -21.1%
O=C(Cn1ncc2c3ccccc3n(Cc3ccccc3F)c2c1=O)NCCCN1CCCC1=O,"inconclusive [inhibitor, single point]",
COc1ccc(CC(=O)N2CCN=C2SCc2ccc([N+](=O)[O-])cc2)cc1,"inconclusive [inhibitor, single point]",
O=C(Nc1cccc(F)c1)NC1CCCCCCC1,"inconclusive [inhibitor, single point]",
Cc1ccc(S(=O)(=O)N2CCCCC2)cc1C(=O)OCC(=O)N1c2ccccc2NC(=O)C1(C)C,active: 11.2 µM,
COc1cccc(NC(=O)c2cccnn2)c1,,inactive: -2.32%
Cc1ccc(C2=CC(c3ccc(N(C)C)cc3)n3nnnc3N2)cc1 (stereo unspecified),"inconclusive [inhibitor, single point]",
O=C(Nc1ccc(S(=O)(=O)NCC2CCCO2)cc1)c1ccc(F)cc1 (stereo unspecified),"inconclusive [inhibitor, single point]",
Cc1nc(-c2ccc(C(=O)O)cc2)cs1,,inactive: 18.2%

SMILES,Potency,"activity change, negative = inhibition"
Cc1ccc2nc(-c3ccncc3)cc(C(=O)Nc3ccc4c(c3)OCCO4)c2c1,"inconclusive [inhibitor, partial curve]",
COc1cnc(-c2ccccc2)nc1Oc1cccc(C)c1C,"inconclusive [inhibitor, full curve, poor fit]",
CCS(=O)(=O)N1CCCC(C(=O)Oc2ccc(Br)cc2)C1 (stereo unspecified),,inactive: -2.33%
CCCn1nnc(NC(=O)c2ccc(Br)cc2)n1,,inactive: 14.2%
CN(Cc1ccccc1)Cc1nc2c(c(=O)n(C)c(=O)n2C)n1Cc1ccc(F)cc1,,inactive: -18.1%
CCOC(=O)c1[nH]c(C)c(C(=O)OCC(=O)NC(C)c2ccc(F)cc2)c1C (stereo unspecified),"inconclusive [inhibitor, full curve]",
O=C(C1CC(=O)N(c2ccccc2)C1)N1CCC(c2nc3ccccc3[nH]2)CC1 (stereo unspecified),,inactive: -8.96%
COc1ccc2c(c1OC)C(=O)N1c3ccccc3C(=O)N(c3ccccc3F)C21 (stereo unspecified),"inconclusive [inhibitor, single point]",
CC(NC(=O)c1cc(COc2c(F)cccc2F)on1)c1cnn(-c2ccccc2)c1 (stereo unspecified),"inconclusive [inhibitor, single point]",
O=S(=O)(c1ccc2nc(COc3ccc(Cl)cc3Cl)[nH]c2c1)N1CCOCC1,"inconclusive [inhibitor, partial curve]",
O=C(NCc1ccccn1)C1CCN(S(=O)(=O)c2cc(Cl)ccc2Cl)CC1,"inconclusive [inhibitor, single point]",
Clc1nc(Nc2ccc(N3CCOCC3)cc2)c2ccccc2n1,"inconclusive [inhibitor, single point]",
C[C@@H]1CC[C@@]2(O[C@@H](CCO)C[C@@H](O)[C@@H]2O)O1,,inactive: 45.7%
O=C1C(C2=C(O)c3ccccc3C2=O)=Nc2ccccc21,active: 10 µM,
O=C(OCc1ccc(F)cc1)c1ccc2ccccc2n1,,inactive: -21.2%
CCOc1cc(C#N)c(NC(=O)CSc2nnnn2-c2ccc(OC)cc2)cc1OCC,"inconclusive [inhibitor, partial curve]",
O=[N+]([O-])c1cc(S(=O)(=O)C(F)(F)F)ccc1Sc1nc2ccccc2s1,,inactive: -18.6%
Cc1cccc(C)c1NC(=O)CS(=O)CC(=O)NC1CCCc2ccccc21 (stereo unspecified),"inconclusive [inhibitor, partial curve]",
COC(=O)c1c(-c2cc(OC)cc(OC)c2)sc2ccc(OC)cc12,active: 12.6 µM,
Cc1nc(Nc2ccc3c(c2)OCO3)c2oc3ccccc3c2n1,"inconclusive [inhibitor, single point]",
O=C(NCc1ccco1)/C(=C\c1ccco1)NC(=O)c1ccccc1Cl,"inconclusive [inhibitor, single point]",
COCC(=O)Oc1c(Sc2ccccc2[N+](=O)[O-])c(C)nn1C(C)(C)C,,inactive: 8.88%
COc1ccc2nc(NC(=S)N(C)C)sc2c1,"inconclusive [inhibitor, single point]",

# From PubChem BioAssay AID651820 (National Center for Advancing Translational Sciences (NCATS), 2012)
